In all, about 46,000 compounds went through this assay and about 60 (0.1%) were called active. Inconclusive results (about 3%) are left out. The call rests on the fitted dose curve; in most records, active means well fitted inhibition curve with a large enough effect; inconclusive means small, poorly fitted or top-dose-only effect; inactive means no such curve, though single readings can be large or run the other way. This is one part of the list.
Test: Primary qHTS assay for Inhibitors of ovarian cancer metastasis using an organotypic tumor microenvironment (TME) model. Further: nearly all actives have a fitted effect of over 65% in size.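 On activity change, negative = inhibition: plate controls were DMSO wells for no effect and tomatine positive control wells for full effect.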
Details: SKOV3ip1-GFP adhesion/invasion on 3D omental model, fluorescence; series mostly up to 45.8 µM; activity change, negative = inhibition: at the top concentration
Summary of the method: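 Primary human omental fibroblast/mesothelial 3D culture pre-formed 48 h. SKOV3ip1-GFP cells added with compounds (0.36-46 umol/L), incubated 2 h RT/16 h 37 C, fixed; GFP cells quantified at 488/509 nm.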

SMILES | outcome | activity change, negative = inhibition
COc1cccc(C2C(C(=O)Nc3ccccc3)=C(C)Nc3nc(-c4ccccc4)nn32)c1OC (stereo unspecified) | inactive | –
CCOC(=O)c1ccc(CN(Cc2ccccc2C)S(=O)(=O)c2ccc(C(C)(C)C)cc2)cc1 | – | inactive: 0.627%
Cc1ccc(C(=O)n2nc(C)c(S(=O)(=O)N3CCCCCC3)c2C)cc1 | – | inactive: 7.81%
CC1CCN(S(=O)(=O)c2ccc3c(c2)CCC(=O)N3CC(=O)Nc2cccc(C#N)c2)CC1 | – | inactive: 8.73%
CCCCNC(=O)CSc1nnc(C)c2c(C)n(-c3ccccc3)nc12 | – | inactive: -5.42%
Cc1ccc(Cn2c(C)c(CNCCCc3ccccc3)c(C(=O)O)c2C)cc1 | – | inactive: -1.85%
O=C(NCc1ccccc1)c1ccc(CSc2nc3cccnc3n2Cc2ccccc2F)cc1 | – | inactive: -21.9%
Cc1ccc(C2=NN(CC(=O)NCCN(CC(C)C)CC(C)C)C(=O)CC2)cc1 | – | inactive: 3.19%
CC(C)NC(=O)C1CCN(c2nc3ccccc3nc2C(F)(F)F)CC1 | inactive | –
CCC1CN(C(=O)N2CCC(C(=O)NCc3ccccc3C)CC2)c2ccccc2O1 (stereo unspecified) | – | inactive: 4.23%
Cc1ccc(-c2noc(CNC(=O)c3ccccc3)n2)cc1 | – | inactive: 12%
Cc1ccc(-c2cc3c(n2-c2ccc(C)cc2)CC(C)(C)CC3=O)cc1 | – | inactive: 0.363%
COc1ccc(OCC(=O)Nc2cccc(-c3nc4ccccc4s3)c2C)cc1 | – | inactive: 9.71%
O=C(NCCOCCn1c(=O)oc2ccccc21)Nc1ccc(F)cc1 | inactive | –
Cc1ccc(S(=O)(=O)c2cn(C)c3cc(N4CCCC(C)C4)c(F)cc3c2=O)c(C)c1 (stereo unspecified) | – | inactive: -6.28%
Cc1cc2c(cc1S(=O)(=O)N(CCN(C)C)Cc1ccco1)OCC(=O)N2 | – | inactive: -6.32%
CC(C)N(Cc1ccccc1)C(=O)CCS(=O)(=O)c1ccc2c(c1)oc(=O)n2C | – | inactive: 5.72%
Cc1ccc(NC(=O)C2CCN(S(=O)(=O)c3c(C)noc3/C=C/c3ccco3)CC2)cc1C | – | inactive: -2.68%
COc1ccccc1OCC(=O)Nc1nc(-c2ccc(Br)cc2)ns1 | – | inactive: 17.8%
Cc1nc(N2CCCC2)ncc1C(=O)Nc1ccc(F)cc1F | – | inactive: 0.705%
O=C(c1ccc2c(c1)N(Cc1ccccc1F)C(=O)c1ccccc1S2=O)N1CCOCC1 (stereo unspecified) | – | inactive: 44.9%
CC(C)(C)CC(=O)NC1CC(=O)N(c2ccc3c(c2)OCCO3)C1 (stereo unspecified) | – | inactive: 6.01%
Cc1c(Cl)cccc1NC(=O)Cn1cnc2nc3c(cc2c1=O)CCCC3 | – | inactive: 2.83%
Cc1ccc(-n2ncc3c(N4CCC(Cc5ccccc5)CC4)ncnc32)cc1 | – | inactive: 1.98%

SMILES | outcome | activity change, negative = inhibition
Cc1ccc(CN2CCc3nc(N4CCN(C)CC4)ncc3C2)s1 | – | inactive: -1.22%
CN(Cc1ccccc1)S(=O)(=O)c1nnc(NC(=O)c2ccccc2)s1 | – | inactive: 6.06%
COc1ccc2c(c1)c1c(c(=O)n(-c3ccccc3)c(=O)n1CC(=O)Nc1ccc(C)c(C)c1)n2C | inactive | –
CCCCCN=C(N)NN=Cc1c[nH]c2ccc(OC)cc12 | – | inactive: -8.73%
CCc1ccc(C(=O)c2cn(CC(=O)Nc3ccc(C)c(C)c3)c3ccccc3c2=O)cc1 | – | inactive: -6.77%
O=C(NCC1CCCO1)c1c[nH]c2ccc(S(=O)(=O)Nc3cccc(C(F)(F)F)c3)cc2c1=O (stereo unspecified) | – | inactive: 1.37%
Cc1ccc2c(c1)cc1c(=O)n(CC(=O)N3CCCCC3)nc(C)n12 | – | inactive: 3.6%
Cc1cccc(N(C)C(=O)CSc2nc3ncccc3o2)c1 | – | inactive: -1.15%
Cc1cccc(N(C)C(=O)CCNS(=O)(=O)c2ccc3c(c2)CCN3C(=O)C2CC2)c1 | – | inactive: 63.9%
N#Cc1ccc(CSc2nc3c(c(=O)[nH]2)CCCC3)cc1 | – | inactive: 11.3%
O=c1c(O)c(-c2ccc(O)cc2O)oc2cc(O)cc(O)c12 | – | inactive: -9.21%
COc1cc(NC(=O)CN2CCN(CC(=O)Nc3ccc(F)cc3)CC2)cc(OC)c1 | inactive | –
COc1cc(C(CC(=O)NCCC(C)C)N2Cc3ccccc3C2=O)cc(OC)c1OC (stereo unspecified) | inactive | –
COc1ccc(C2CNC(=O)C2)cc1OC1CCCC1 (stereo unspecified) | – | inactive: -4.56%
Cn1ncc2c(Nc3cccc(F)c3)ncnc21 | – | inactive: -8.74%
Fc1ccc2ncc3c(-c4ccccc4)n[nH]c3c2c1 | – | inactive: 0.658%
CC(C)Sc1ncc(Cl)c(C(=O)Nc2ccc(S(=O)(=O)N(C)c3ccccc3)cc2)n1 | – | inactive: 5.33%
Cc1ccc(C)c(CS(=O)(=O)c2cn(CC(=O)N(C(C)C)C(C)C)c3ccccc23)c1 | – | inactive: 0.26%
COC(=O)CCn1cnc2onc(-c3cc(F)cc(F)c3)c2c1=O | – | inactive: 6.98%
O=C(Nc1c(C(=O)Nc2ccccc2F)oc2ccccc12)c1cc2ccccc2o1 | – | inactive: -6.19%
CN(C1CCCCC1)S(=O)(=O)c1ccc2c(c1)c(=O)c(C(=O)N1CCN(c3ccccc3F)CC1)cn2C | inactive | –
CCc1c(-c2ccccc2)nc2ccccc2c1C(=O)NCc1ccc(C)cc1 | inactive | –
CCOc1ccc(C(=O)N2CCC(c3noc(-c4ccc(S(=O)(=O)N5CCCC5)cc4)n3)CC2)cc1 | – | inactive: -1.94%
Cc1ccc(OCCn2nnc3sc4c(c3c2=O)CCC(C)C4)cc1 (stereo unspecified) | – | inactive: 2.79%

SMILES | outcome | activity change, negative = inhibition
Cc1ccc(-c2nc(Cn3c(=O)cc(-c4ccccc4)c4c(C)nn(C)c43)c(C)o2)cc1 | inactive | –
COc1cc(NC(=O)Cn2c(=O)n(Cc3ccco3)c(=O)c3oc4ccccc4c32)cc(OC)c1 | – | inactive: -0.68%
O=C(CSc1nnc(-c2ccc([N+](=O)[O-])cc2)o1)Nc1ccccc1 | inactive | –
Cc1cc(C)cc(NS(=O)(=O)c2ccc3[nH]cc(C(=O)NCc4ccccc4Cl)c(=O)c3c2)c1 | – | inactive: -8.24%
CC(=O)Nc1nc(C)c(-c2ccc(Cl)c(S(=O)(=O)NCCO)c2)s1 | – | inactive: -13.1%
CSc1cccc(NS(=O)(=O)c2cn(C)c(C)n2)c1 | inactive | –
Cn1cnc(S(=O)(=O)N2CCC(C(=O)N3CCN(c4ccccc4F)CC3)CC2)c1 | inactive | –
CCOc1ccc(NC(=O)c2cc(=O)c3ccc(C)c(C)c3o2)cc1 | – | inactive: -6.96%
COc1ccc2occ(CC(=O)Nc3ccc(S(=O)(=O)Nc4nc(C)cc(C)n4)cc3)c2c1 | – | inactive: 1.14%
COc1ccc(C2C(C(=O)Nc3ccc(C)cc3C)=C(C)Nc3nc4ccccc4n32)c(OC)c1 (stereo unspecified) | – | inactive: -13.5%
O=C1CSC2(C(=O)N(Cc3ccccc3)c3ccccc32)N1c1ccc(Cl)cc1 (stereo unspecified) | – | inactive: 3.02%
CCN(c1ccccc1)c1nnc(NC(=O)Nc2ccc(Br)cc2F)s1 | – | inactive: 2.89%
O=C(Nc1ccc(Br)cc1F)N1CCC2(CC1)Oc1ccccc1C(=O)N2Cc1ccccc1F | – | inactive: 5.22%
COc1ccc(N2CCN(c3nc4ccc(C)cc4n4nnnc34)CC2)cc1 | – | inactive: 4.44%
CCOc1ccc2c(c1)NC(c1cccs1)=NC(c1ccc(F)cc1)=N2 | – | inactive: -0.792%
COC(=O)c1ccc(Cn2nnc3c(=O)[nH]c(C4CCCN(S(=O)(=O)c5cccc(Cl)c5)C4)nc32)cc1 (stereo unspecified) | – | inactive: 0.159%
COc1ccc2c(c1)cc1c(=O)n(CC(=O)NCCCc3ccccc3)nc(C)n12 | – | inactive: 1.88%
COc1cccc2c1Oc1ncccc1N(C(=O)CCC(=O)NCc1ccccc1Cl)C2 | – | inactive: 0.406%
O=C(CN1C(=O)COc2ccc(S(=O)(=O)Nc3ccccc3)cc21)Nc1cccc(Cl)c1 | inactive | –
CC(C)(C)c1ccc(C(=O)N2CCCCC2CCN2CCCCC2)cc1 (stereo unspecified) | inactive | –
CCC(C)NC(=O)C1=CC(c2ccc3c(c2)OCO3)=NS(=O)(=O)N1C (stereo unspecified) | – | inactive: 2.76%
COC(=O)c1cc(NC(=O)Cn2nc(-c3ccc(C)c(C)c3)ccc2=O)cc(C(=O)OC)c1 | – | inactive: 18.4%
CCN(C(=O)Cn1cnc2sc(C)c(S(=O)(=O)N3CCN(c4ncccn4)CC3)c2c1=O)c1ccccc1F | inactive | –
COc1ccc(Cc2nc3ccccc3n2Cc2ccccc2F)cc1 | – | inactive: -0.794%

SMILES | outcome | activity change, negative = inhibition
CC(=O)c1ccc(NC(=O)CC(c2cccs2)N2Cc3ccccc3C2=O)cc1 (stereo unspecified) | inactive | –
Cc1ccccc1CSc1ncc(CO)n1Cc1ccc(F)cc1 | – | inactive: 14.7%
CCOc1ccc(-c2cc(-c3nc(-c4ccc(OC)c(OC)c4)no3)[nH]n2)cc1 | inactive | –
COc1ccc(CCNC(=O)CCc2c(C)c3cc4c(C)coc4c(C)c3oc2=O)cc1OC | inactive | –
CC(O)CNc1nc2c(c(=O)n(Cc3ccc(Cl)cc3)c(=O)n2C)n1C (stereo unspecified) | – | inactive: -5.53%
CCOC(=O)c1ccc(NC(=O)c2ccc(=O)n(Cc3cccc(C)c3)c2)cc1 | inactive | –
Cc1ccc(-n2ncc(C(=O)N3CCN(c4ccc(Cl)cc4)CC3)c2C2CCN(C(=O)OC(C)(C)C)CC2)c(C)c1 | inactive | –
Cc1cc(Cl)ccc1OCC(=O)N(Cc1ccco1)Cc1ccco1 | inactive | –
CCC1CN(C(=O)Nc2ccc(C)c(F)c2)c2ccccc2S1 (stereo unspecified) | – | inactive: -2.76%
Cc1cc2c(cc1S(=O)(=O)CCC(=O)NCCc1ccccc1)OCC(=O)N2 | inactive | –
Cc1nnc(N2CCC(C(=O)NCCc3ccccc3)CC2)c2nn(-c3ccc(Cl)cc3)c(C)c12 | – | inactive: -6.19%
COc1cc(OC)c(NS(=O)(=O)c2cc(-c3cnc(C4CC4)o3)ccc2C)cc1Cl | inactive | –
CCOc1ccc(-n2nc3cc(C)c(NC(=O)c4cc(OCC)c(OCC)c(OCC)c4)cc3n2)cc1 | – | inactive: -0.693%
CC(C)(C)C(=O)NC1(C(F)(F)F)C(=O)Nc2c1c(=O)[nH]c(=O)n2-c1ccccc1 (stereo unspecified) | – | inactive: 5.33%
Cc1ccc(NC(=O)CN2CCSc3ccc(S(=O)(=O)N4CCCC4)cc32)cc1C | – | inactive: -2.18%
O=C1CN(C(=O)c2ccc(S(=O)(=O)N3CCCC3)cc2)C(c2ccccc2)c2cc(Br)ccc2N1 (stereo unspecified) | – | inactive: 1.03%
CCOc1ccc(-c2nnc(SCC(=O)NCc3ccccc3)o2)cc1 | – | inactive: -7.96%
Cc1nncn1-c1ccc(C(=O)Nc2cc(F)ccc2F)cc1 | – | inactive: -12.8%
Cc1ccc(CCNC(=O)CCS(=O)(=O)c2cc3c(cc2C)NC(=O)CO3)cc1 | inactive | –
CN(C(=O)CCS(=O)(=O)c1cc2c(cc1Cl)NC(=O)CO2)C1CCCCC1 | – | inactive: 22.6%
O=C(Nc1ccc2nc(SCC(=O)N3CCc4ccccc43)sc2c1)c1cccc(Cl)c1 | – | inactive: 7.32%
COc1cc(OC)c(OC)cc1CNc1sc2c(c1C(=O)Nc1ccccc1OC)CCC2 | – | inactive: -16.6%
CCn1c(C(=O)N2CCCC(C(=O)N3CCN(c4cc(C)ccc4C)CC3)C2)cc2sccc21 (stereo unspecified) | – | inactive: -3%
CCN(CC)c1ccc(NC(=O)c2sc3nc4c(cc3c2N)CN(C)CC4)cc1 | – | inactive: -2.64%

Reference: PubChem BioAssay AID1963576 (National Center for Advancing Translational Sciences (NCATS), 2024)
